Laboratory results as given in the supplement of paper PMC11417369.
The other results are listed elsewhere or left out.

Tested on: PF3D7_0420300 AP2 domain 1 (GST-tagged)
Assay: gcPBM binding intensity (ln(normalized median fluorescence intensity)); higher = stronger DNA binding
Method in brief: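 Binding intensity is the highest Masliner-normalised natural-log median intensity over replicate spots in either probe orientation. To obtain it, GST-tagged P. falciparum DNA-binding domains made in E. coli were incubated for 1 h on an Agilent 4 × 180k array of primer-extended double-stranded 36-bp intergenic genomic probes plus negative controls. Detection used Alexa488 anti-GST antibody with scanning at 488 nm.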

Sequence	gcPBM binding intensity (ln)
AAAGAACAAATAAAACATAAAATAATATATATAGAT [CACACA_negctrl_site1764]	9.76
ATTAAAATTTGTTAAAGTACTTAATAAAAATTTTTC [XGTACX_site1959]	8.86
GTATATAATTATATATGTACTAAATAAATATTTTTA [XGTACX_site6062]	9
TTTTCTAAAAAAAGTTGTACATCTTATTTATATTAT [XGTACX_site295]	9.22
AAAAAATAAAAAAATAAAAAATAAAAAATAAAAAAT [TGCATGCA_negctrl_site90]	9.32
TATAAAAATAAATAAATAAATAAATAAATAAATAAA [TGCATGCA_negctrl_site310]	9.03
ATGTAAGACAAAAAGGGTACATAATGCGTATGTATT [XGTACX_site4666]	9.58
AAAAATTACCCATCCATACACACATATTTTTTTTAA [CACACA_site2190]	9.58
TTTTTAGTTAATTAAACACACAAAAAAAAAAATAAA [CACACA_site3930]	9.24
AATATTTTTATATATATACACACTTACATATATATA [CACACA_site3609]	9.5
ATAATATTGTGGTATACACACCTTACAAAAAGGTAC [CACACA_site5582]	9.46
CACACGTATATATATACACACTAAAATACCCAGACA [CACACA_site6142]	9.71
TATATTTGGTTTCATTCATTTTTATAGAAATCTCAA [CACACA_negctrl_site1412]	9.07
TATTTTTTTACATATTGTACATAATATAAAACTTAC [XGTACX_site8273]	9.12
ATTTTTTCATATTCTACACACGTGAACAAATGTGTC [CACACA_site3007]	9.46
ATATAATAGAAGTGTACACACATATTTATGGGTGTA [CACACA_site5686]	9.59
AATATTTTGTTATTTATTTAATCTAATATTATGATA [GTGCAC_negctrl_site258]	9.17
TCAAGAATTATATAAACACACATACATACACCCATA [CACACA_site5126]	9.81
GAATTCAACAAAAAAAGTACTCTACATAAAATAATG [XGTACX_site175]	9.12
CCATGCATACATTCTTGTACACATTTCTATTATGAG [XGTACX_site39]	9.27
ATATTGATGTATTGTTTTTTTTTTTTCTTTTTTTTT [CACACA_negctrl_site1238]	9.57
TACTCACAATGGGGTCTACAAAAAAAAAAAAATAAA [XGTACX_negctrl_site229]	8.65

Sequence	gcPBM binding intensity (ln)
TTATAAAAGGACTTCTGTACGAATTTTTTTTAATAA [XGTACX_site1411]	8.78
GAACGAAACTTTCTTACACACATTGAAATTTTTTTC [CACACA_site1779]	9.62
ATTAATTTTATATATGCACACAAAATATGTTCATAT [CACACA_site9350]	9.43
ATGATCATAAAACACACACACAAAAAAAAAAAAAAA [CACACA_site1805]	9.51
AATAATATTTATTTTTGTACATATGTGCATTATAAA [XGTACX_site3682]	9.1
TTATAATAAACCTATACACACATAAATAAATAAATA [CACACA_site2581]	9.71
TATGTATATATTTGTGCACACCAAAGTTTGATTTTA [CACACA_site1861]	9.53
ATATAGACACACACATGTACATATGCCAACGTGATA [XGTACX_site3828]	9.61
ATAAACTGAGTGGTTACACACAAAACCAATAACTTT [CACACA_site7601]	9.76
ACTATATAATATAATATATTATAATATATTATATTA [GTGCAC_negctrl_site140]	9.09
TTCTTAAAATATGAAAGTACATAGGCATTATATATT [XGTACX_site8400]	9.03
TATGCAAGGAACCACACACACACACCGAAATGTATA [CACACA_site4573]	10.1
TTTTTTATTAGTATCTGTACACATTGGTATTTGTAT [XGTACX_site6682]	9.5
AATAAATAAATATATATATATATATAATATCATAAA [CACACA_negctrl_site337]	9.08
ATATATATTTATGTATCACACACAAAAAAAAAAAAT [CACACA_site7973]	9.66
AGTTTATTTATATACACACACATATAAATATTATAG [CACACA_site6522]	9.72
TTCTTTAAAATATTATGTACACATTGCGAACAGTTT [XGTACX_site5418]	9.17
TATATATATATATATTGTACTTATGTTTATATTCAT [XGTACX_site6258]	9.37
TATTTATGTAGATACACACCCATGTTATATGGAGGT [CACACA_site3461]	9.32
TTTCTTTTTTTTTTTATTTACCTGAATTATGTATTA [TGCATGCA_negctrl_site345]	9.24
GCTTGTTCAAAAATGAGTACATACAAATAGTTGTAT [XGTACX_site1770]	9.07
CCTTCATCATATTTAACACACAGAGAAAAAGCGGAT [CACACA_site274]	9.72

Sequence	gcPBM binding intensity (ln)
AAAAAAAAAAAAAAAAAAACCACAAACAAATATGAA [TGCATGCA_negctrl_site34]	9.49
TCCTTTCTTTTTTAAACATGCATATGTAATATAAAT [TGCATGCA_site979]	8.96
TTTACATACAAATTAACACACATATAGAAAAGAGAA [CACACA_site1889]	9.59
CTCGTATATATAATACGTACATATTATATATATATA [XGTACX_site1704]	9.19
AAAAAAAATAAACACACACACATACCCATAAATATA [CACACA_site5980]	10.1
TTTTAAAATATATTTGTATATATATATATATATATA [XGTACX_negctrl_site536]	8.94
ATAATATAATAATACACACTCATTATATATATAAAG [CACACA_site3956]	9.52
TTTGAAATATTTATTTGTACATATACACACTTAAAT [XGTACX_site8321]	9.29
ATATTATTTTGTCAGGGTACATTCCATAAGTTTTTT [XGTACX_site6855]	9.48
TTCTGGTGTAAATGCACACAGAAGAAGAAAAAAAAA [CACACA_site3685]	9.03
TAATTTAATTTTCCAAGAAAAAAAAAAGAAAAAAGA [CACACA_negctrl_site1703]	9.02
TAACATCCTAATGTCACACATGTTATAGGTTTAAAT [CACACA_site5649]	9.16
AATAGATTTTTATGCGTGCACACATTTAACAAAAAA	9.18
GTGCTAGTATTTAATACACACAATTGAAGTTCCTGA [CACACA_site1452]	9.38
AAAAATATAAAGAAATGTACTTATAAAAATCCCTAC [XGTACX_site3824]	9.45
TTCTGTTCAAAATATGAACACACACCGATATATATA [CACACA_site8637]	9.47
TACACCAGTTGTGGGAGTACACAAAAAAAGGGAAAA [XGTACX_site6047]	9.39
CTTTATCTTTTTCATTGTACTTTATTTTAAAATTAA [XGTACX_site4858]	9.27
TGCAGTCTGGAGAAAAGTACACAGTATCTGGTAGCT [XGTACX_site2013]	9.03
AATATCATAAAATAAAGTACAAATATATATTGAAAA [XGTACX_site8813]	9.42
TTTTAGTGAAATGAGTGTACATTATATATTTTTTTT [XGTACX_site4892]	9.12
ATTCTATATATATAAACACACAAATATTTTTATATA [CACACA_site1677]	9.28

Sequence	gcPBM binding intensity (ln)
AAGACTAATCTAGGTAGTACTTATATATCTTTATTT [XGTACX_site4572]	9.26
ATATAAGGAAGGGATGCACACAAAAGGGTACATAAG [CACACA_site9328]	9.68
ATATTTTTGTTCAGGAGTACAGTTCAAGATGAAAAT [XGTACX_site4178]	9.18
TTTGGGATATTTACAGTGCAAAGATATTTTTATAAT	9.05
TTTTTTATATATGTGTGTGTGTGTGTGTCAAGTTTA [GTGCAC_negctrl_site460]	10.3
ATAACATAATAGCAACAATTTATTTCCTCTATAACA [CACACA_negctrl_site243]	9.23
ATATAATATTACAAATGTACTTTAAAAAATTAGGAG [XGTACX_site3897]	9.21
TTGTTTCAAGAAAAAATCGAAAAACATAGAAAAAAA [XGTACX_negctrl_site615]	9.1
TATATATCAAAAATATGTACACAGAAATATATATTA [XGTACX_site6997]	9.36
ACATATAAAATATATACACACATATAAATACATTAA [CACACA_site3867]	9.75
TTGCAATAATGTTGCACACTAAATAGTCATATATAA [CACACA_site263]	9.09
CATTTTTTATAATAATGTACATGTATTAAAAAAAAA [XGTACX_site6390]	8.89
TTTATAAGAATTACTAGTACATATAAGGAATTATAT [XGTACX_site3953]	9.06
TTATAAATTTAAAGTAGTACTATACTACTATTTTAT [XGTACX_site3038]	9.04
ATCCACAAAATAGGATGTACATATAAAATAAATAAA [XGTACX_site5362]	9
TATGGAATAATACGCGTACACACATATATATATTAA [CACACA_site132]	9.61
AAATTATTATGTATTTGTACACATAAGAATATAAAA [XGTACX_site6841]	9.1
TATAAATAATGTTAAACACACATACCGATATATAAT [CACACA_site5499]	9.63
AATGGGGAAGGTTCTACACACAACGCAAATGCCTTA [CACACA_site2758]	9.57
AGAGAAAGAAAGAAATGTACAAATACCTACACACAT [XGTACX_site3140]	9.84
TCAGTTAATGTATATGTACACACGGTGAGTATATAT [CACACA_site3346]	9.43
TTTTTTACAAATGATATCATTTCTTTAAATATTAAA [TGCATGCA_negctrl_site279]	8.83
